Data published in PubChem BioAssay (NCATS).
Inconclusive results, whose numbers are uncertain, are shown with a selection of clear calls. For some assays here: Potencies beside an inconclusive call are fits to weak or partial responses and may not hold up. For some assays here: “Side channel” marks fits to a control or component signal instead of the main read-out. The source made the active and inactive calls. Unless noted, calls come from the whole dose curve.

Columns and labels:
[1] = MultiTox-Fluor Cytotoxicity Assay - LYMP1-002 - Dead Cells (AID 960; active = well fitted curve in the direction sought with a large enough effect; inconclusive = small, poorly fitted or top-dose-only effect, or another doubt; inactive = no such curve, though single readings can be large; an effect the other way counts as inactive or inconclusive;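 note: 0% = DMSO and 100% = tetraoctylammonium bromide; nearly all actives have a fitted effect of over 60% in size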); settings: LYMP1-002 lymphoblastoid cells, dead-cell protease fluorescence; cytotoxicity (dead cells): at 46.1 µM (top of the series)
Summary of the method: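 Acute cytotoxicity in a human lymphoblastoid line is scored as rising dead-cell protease signal after 16 hr exposure at 37 C, measured fluorometrically (485/520).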

[2] = Cell Viability - LYMP2-011 (AID 969; active = well fitted curve in the direction sought with a large enough effect; inconclusive = small, poorly fitted or top-dose-only effect, or another doubt; inactive = no such curve, though single readings can be large; an effect the other way counts as inactive or inconclusive;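 note: cells exposed to compound for 24 hours; 0% = DMSO only and full inhibition = 92 µM tetraoctylammonium bromide; nearly all actives have a fitted effect of over 60% in size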)
Summary of the method: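 Acute toxicity is scored as a concentration-dependent drop in intracellular ATP of a human lymphoblastoid line after 24 hr treatment. Values are AC50s modeled with the Hill equation.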

[3] = Cell Viability - LYMP2-022 (AID 987; active = well fitted curve in the direction sought with a large enough effect; inconclusive = small, poorly fitted or top-dose-only effect, or another doubt; inactive = no such curve, though single readings can be large; an effect the other way counts as inactive or inconclusive;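 note: cells exposed to compound for 24 hr; 0% = DMSO alone and full effect = tetraoctylammonium bromide at 92 µM; nearly all actives have a fitted effect of over 55% in size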)
Summary of the method: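 Acute toxicity in a human lymphoblastoid line is scored as decreased intracellular ATP after 24 hr compound treatment at 37 C. ATP is measured by CellTiter-Glo luminescence; curves are fitted with the Hill equation to give AC50.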

[4] = biological target: Androgen receptor (Homo sapiens) (UniProt P10275); assay: qHTS assay for small molecule antagonists of androgen receptor signaling (AID 588516; active = well fitted curve in the direction sought with a large enough effect in the signal ratio, with a control signal flat, not every such curve was filed as active; inconclusive = small, poorly fitted or top-dose-only effect, or effect the other way, or a change in a side signal; inactive = no such curve, though single readings can be large or run the other way; the % refers to the signal ratio; note: potency is the fitted concentration of half-maximal effect; for activity change, negative = inhibition: % is set by controls: 0 for no effect and ±100 for the full control effect); settings: AR-UAS-bla HEK293, beta-lactamase ratio, antagonist mode, 16 h; activity change, negative = inhibition: at 76.8 µM (top of the series)
Sequence of UniProt P10275 (P10275 whole entry, looked up): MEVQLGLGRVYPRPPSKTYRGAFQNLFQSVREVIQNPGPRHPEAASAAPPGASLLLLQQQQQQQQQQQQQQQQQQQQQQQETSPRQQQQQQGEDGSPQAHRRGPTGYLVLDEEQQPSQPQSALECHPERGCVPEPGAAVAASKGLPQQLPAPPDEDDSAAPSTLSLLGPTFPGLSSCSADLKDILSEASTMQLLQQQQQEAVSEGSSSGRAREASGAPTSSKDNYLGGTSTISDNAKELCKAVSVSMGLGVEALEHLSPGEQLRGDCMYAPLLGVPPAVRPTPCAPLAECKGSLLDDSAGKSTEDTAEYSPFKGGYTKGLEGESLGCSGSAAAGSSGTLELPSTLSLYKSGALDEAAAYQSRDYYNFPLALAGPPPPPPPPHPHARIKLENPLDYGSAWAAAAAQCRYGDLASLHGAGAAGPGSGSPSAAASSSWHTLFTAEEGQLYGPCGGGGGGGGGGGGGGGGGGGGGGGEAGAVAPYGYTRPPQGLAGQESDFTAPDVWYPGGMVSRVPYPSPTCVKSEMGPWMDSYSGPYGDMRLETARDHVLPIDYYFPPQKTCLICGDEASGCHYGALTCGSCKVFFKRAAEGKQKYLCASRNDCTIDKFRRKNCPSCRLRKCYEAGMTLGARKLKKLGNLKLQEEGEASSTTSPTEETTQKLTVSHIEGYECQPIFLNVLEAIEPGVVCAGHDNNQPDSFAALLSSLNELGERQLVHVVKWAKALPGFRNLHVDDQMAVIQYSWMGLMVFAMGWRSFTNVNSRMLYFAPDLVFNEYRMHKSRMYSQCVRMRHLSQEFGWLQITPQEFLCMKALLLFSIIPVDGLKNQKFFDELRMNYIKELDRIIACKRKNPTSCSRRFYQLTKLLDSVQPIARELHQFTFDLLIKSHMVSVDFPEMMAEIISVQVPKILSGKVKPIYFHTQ
Summary of the method: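 Cells were plated and incubated 5 h, compounds added in titration, then R1881 (10 nM final) as agonist. After 16 h at 37 C, CCF4 substrate was loaded for 2 h at room temperature and fluorescence measured.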

[5] = biological target: Peroxisome proliferator-activated receptor delta (Homo sapiens) (UniProt Q03181); assay: qHTS assay for small molecule antagonists of peroxisome proliferator-activated receptor delta signaling (AID 588535; active = well fitted inhibition curve with a large enough effect in the signal ratio, with a control signal flat, not every such curve was filed as active; inconclusive = small, poorly fitted or top-dose-only effect, or effect the other way, or a change in a side signal; inactive = no such curve, though single readings can be large or run the other way; the % refers to the signal ratio); settings: HEK293T PPARd-UAS-bla, beta-lactamase FRET ratio, 18 h; activity change, negative = inhibition: at 76.7 µM (top of the series) unless noted
Sequence of UniProt Q03181 (Q03181 whole entry, looked up): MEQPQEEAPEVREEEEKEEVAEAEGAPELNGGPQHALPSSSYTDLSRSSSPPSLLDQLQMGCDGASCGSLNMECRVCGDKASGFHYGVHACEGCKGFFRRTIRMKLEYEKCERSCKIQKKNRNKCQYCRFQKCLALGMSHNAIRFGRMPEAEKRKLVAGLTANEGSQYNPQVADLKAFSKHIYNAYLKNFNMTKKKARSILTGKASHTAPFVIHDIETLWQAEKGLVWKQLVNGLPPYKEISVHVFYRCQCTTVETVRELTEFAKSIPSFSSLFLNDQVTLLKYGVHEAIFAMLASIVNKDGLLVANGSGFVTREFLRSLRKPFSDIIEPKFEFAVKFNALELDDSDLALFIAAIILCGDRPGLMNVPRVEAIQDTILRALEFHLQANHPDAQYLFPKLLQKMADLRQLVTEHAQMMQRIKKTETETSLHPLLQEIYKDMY
Summary of the method: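 Cell-based beta-lactamase assay in antagonist mode: 4000 HEK293T PPAR-delta-UAS-bla cells per well, 5 hr preincubation then 18 hr compound incubation at 37 C. IC50 obtained by Hill equation fitting.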

[6] = biological target: Peroxisome proliferator-activated receptor gamma (Homo sapiens) (UniProt P37231); assay: qHTS assay for small molecule antagonists of peroxisome proliferator-activated receptor gamma signaling (AID 588537; active = well fitted inhibition curve with a large enough effect in the signal ratio, with a control signal flat, not every such curve was filed as active; inconclusive = small, poorly fitted or top-dose-only effect, or effect the other way, or a change in a side signal; the % refers to the signal ratio; note: potency is the fitted concentration of half-maximal effect;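 note: reporter cells co-stimulated with 50 nM rosiglitazone agonist during compound treatment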; for activity, negative = inhibition: % of control where 0% means no effect); settings: HEK293 PPARg-UAS-bla, beta-lactamase ratio, antagonist mode; activity, negative = inhibition: at 76.8 µM (top of the series)
Summary of the method: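 Inhibitors of agonist-stimulated UAS-bla reporter activity were sought in HEK293 cells; rosiglitazone (50 nM) defined full signal and DMSO baseline. Curves fitted to Hill model gave IC50 and efficacy.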

[7] = biological target: Retinoic acid receptor RXR-alpha (Homo sapiens) (UniProt P19793); assay: qHTS assay for small molecule agonists of retinoid X receptor alpha signaling (AID 588544); settings: HEK293T RXRa-UAS-bla, beta-lactamase reporter, 18 h; activation: at 76.7 µM (top of the series) unless noted; note: potency is the fitted concentration of half-maximal effect;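 for activation: 0% = DMSO basal wells and 100% = reference agonist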
Sequence of UniProt P19793 (P19793 whole entry, looked up): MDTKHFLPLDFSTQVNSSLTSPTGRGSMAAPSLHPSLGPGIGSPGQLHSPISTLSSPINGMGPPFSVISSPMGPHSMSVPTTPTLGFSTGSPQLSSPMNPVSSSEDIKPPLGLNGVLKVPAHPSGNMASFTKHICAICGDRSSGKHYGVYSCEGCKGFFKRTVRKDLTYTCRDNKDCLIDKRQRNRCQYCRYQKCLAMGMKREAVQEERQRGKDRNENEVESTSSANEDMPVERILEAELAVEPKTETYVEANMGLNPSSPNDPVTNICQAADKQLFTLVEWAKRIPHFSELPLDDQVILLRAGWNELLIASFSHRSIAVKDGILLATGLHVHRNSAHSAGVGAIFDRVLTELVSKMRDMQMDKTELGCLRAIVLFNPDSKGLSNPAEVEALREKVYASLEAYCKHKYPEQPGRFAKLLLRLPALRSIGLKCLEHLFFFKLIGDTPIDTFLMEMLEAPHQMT

[8] = biological target: Retinoic acid receptor RXR-alpha (Homo sapiens) (UniProt P19793); assay: qHTS assay for small molecule antagonists of retinoid X receptor alpha signaling (AID 588546; active = well fitted inhibition curve with a large enough effect in the signal ratio, with a control signal flat, not every such curve was filed as active; inconclusive = small, poorly fitted or top-dose-only effect, or effect the other way, or a change in a side signal; inactive = no such curve, though single readings can be large or run the other way; the % refers to the signal ratio;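 note: cells stimulated with 9-cis-retinoic acid as agonist; % is set by controls: 0 for no effect and ±100 for the full control effect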); settings: HEK293T RXRa-UAS-bla, beta-lactamase ratio, antagonist mode
Summary of the method: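 Beta-lactamase reporter inhibition, read as CCF4 fluorescence ratio (ex 405, em 460/530 nm) after 2 h at RT. HEK293T UAS-bla cells, 2500/well, were stimulated with 9-cis-RA at 500 or 100 nM final alongside test compound for 18 h at 37 C.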

[9] = biological target: Thyroid hormone receptor beta (Homo sapiens) (UniProt P10828); assay: qHTS assay for small molecule antagonists of thyroid hormone receptor beta signaling (AID 588547; active = well fitted inhibition curve with a large enough effect in the signal ratio, with a control signal flat, not every such curve was filed as active; inconclusive = small, poorly fitted or top-dose-only effect, or effect the other way, or a change in a side signal; the % refers to the signal ratio;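 note: cells stimulated with 0.4 nM T3 agonist during compound exposure; % is set by controls: 0 for no effect and ±100 for the full control effect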); settings: TR-UAS-bla HEK293, beta-lactamase ratio, antagonist mode, 18 h
Sequence of UniProt P10828 (P10828 whole entry, looked up): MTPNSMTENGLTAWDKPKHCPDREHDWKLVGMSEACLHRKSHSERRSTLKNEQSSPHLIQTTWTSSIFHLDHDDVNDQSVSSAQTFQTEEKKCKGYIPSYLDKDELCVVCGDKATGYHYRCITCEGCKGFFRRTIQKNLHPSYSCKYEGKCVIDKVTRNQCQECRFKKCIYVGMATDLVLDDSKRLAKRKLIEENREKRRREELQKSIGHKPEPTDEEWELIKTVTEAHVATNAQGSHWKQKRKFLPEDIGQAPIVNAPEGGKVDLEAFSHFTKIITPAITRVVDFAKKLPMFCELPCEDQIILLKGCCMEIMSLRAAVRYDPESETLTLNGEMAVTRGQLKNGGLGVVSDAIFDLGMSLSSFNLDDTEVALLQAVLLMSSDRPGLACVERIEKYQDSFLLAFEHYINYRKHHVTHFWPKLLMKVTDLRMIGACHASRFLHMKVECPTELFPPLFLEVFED
Summary of the method: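 Inhibition of T3-driven (0.4nM final) beta-lactamase reporter activity was measured over 0.59 nM to 92 uM compound after 18 h at 37 C. The cells were GripTite HEK293 TR-UAS-bla in charcoal/dextran-stripped serum, with CCF4 ratio read-out and IC50 from Hill fits.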

[10] = qHTS assay for small molecule disruptors of the mitochondrial membrane potential - 5 hr assay (AID 651755); settings: JC-1-type ratio dye; ratio change, negative = disruption: at 92.2 µM (top of the series); note: % is set by controls: 0 for no effect and ±100 for the full control effect; nearly all actives have a fitted effect of over 40% in size
Summary of the method: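 HepG2, 2,000 cells/well, overnight attach; cpd or DMSO 5 hr, 37C/5% CO2; Mito-MPS 30 min 37C; fluor 490/535 + 540/590 nm.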

[11] = qHTS assay to identify small molecules that stimulate interleukin-8 (IL-8) secretion (AID 651758; active = well fitted activation curve with a large enough effect in the signal ratio; inconclusive = small, poorly fitted or top-dose-only effect, or effect the other way, or a change in a side signal; the % refers to the signal ratio; note: 0% is about no effect); settings: HTRF ratio (665/615); activation: at 92.2 µM (top of the series)
Summary of the method: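 Secreted IL-8 measured by TR-FRET sandwich (cryptate and XL665 antibodies) from THP-1 cells exposed to compound overnight (16 hrs, 37 C).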

[12] = qHTS assay for small molecule agonists of the antioxidant response element (ARE) signaling pathway (AID 651741; active = well fitted activation curve with a large enough effect in the signal ratio; inconclusive = small, poorly fitted or top-dose-only effect, or effect the other way, or a change in a side signal; the % refers to the signal ratio; note: potency is the fitted concentration of half-maximal effect; for activation: % of control where 0% means no effect); settings: HepG2 ARE-bla reporter, beta-lactamase FRET ratio, 16 h; activation: at 96 µM (top of the series) unless noted
Summary of the method: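 Seeding 2,000 ARE-bla HepG2 cells per well preceded a 5 h incubation at 37 C/5% CO2 and a 16 h compound exposure at 37 C. Beta-lactamase reporter activity was then quantified by fluorescence after 2 h with LiveBLAzer B/G FRET substrate.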

[13] = qHTS assay for small molecule activators of the p53 signaling pathway (AID 651743; active = well fitted activation curve with a large enough effect in the signal ratio, not every such curve was filed as active; inconclusive = small, poorly fitted or top-dose-only effect, or a change in a side signal; the % refers to the signal ratio; note: potency is the fitted concentration of half-maximal effect); settings: HCT-116 p53RE-bla, beta-lactamase FRET ratio, 16 h; activation: active compounds read high
Summary of the method: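 Screen for p53 pathway agonists uses stably transfected p53RE-bla HCT-116 cells, 4,000 per well, treated 16 h at 37 C with compounds in DMSO.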

[14] = biological target: Bile acid receptor (Homo sapiens) (UniProt Q96RI1); assay: qHTS assay for small molecule antagonists of farnesoid X receptor signaling (AID 588526); settings: HEK293T FXR-UAS-bla, beta-lactamase ratio, antagonist mode; activity change, negative = inhibition: at 76.7 µM (top of the series); note: potency is the fitted concentration of half-maximal effect
Summary of the method: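 Beta-lactamase reporter antagonist mode: HEK293T FXR-UAS-bla cells, titrated compound, CDCA stimulation, 16 h 37 C, CCF4 dye 2 h RT. Data normalized to CDCA 50 uM and DMSO; Hill-fit IC50.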

[15] = biological target: Glucocorticoid receptor (Homo sapiens) (UniProt P04150); assay: qHTS assay for small molecule antagonists of glucocorticoid receptor signaling (AID 588533; active = well fitted inhibition curve with a large enough effect in the signal ratio, with a control signal flat, not every such curve was filed as active; inconclusive = small, poorly fitted or top-dose-only effect, or effect the other way, or a change in a side signal; the % refers to the signal ratio;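 note: cells stimulated with 2 nM dexamethasone as agonist; potency is the fitted concentration of half-maximal effect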); settings: HeLa MMTV-bla, GRE beta-lactamase ratio, antagonist mode, 18 h; activity change, negative = inhibition: at 76.8 µM (top of the series) unless noted
[16] = biological target: Peroxisome proliferator-activated receptor delta (Homo sapiens) (UniProt Q03181); assay: qHTS assay for small molecule agonists of peroxisome proliferator-activated receptor delta signaling (AID 588534); settings: HEK293T PPARdelta-UAS-bla, beta-lactamase ratio, 18 h; activation: at 76.7 µM (top of the series); note: potency is the fitted concentration of half-maximal effect
Summary of the method: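 Reporter cells were plated and held 5 hrs at 37 C before compounds were added. After 18 hrs at 37 C, CCF4 dye was loaded for 2 hrs at RT and fluorescence measured.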

[17] = biological target: Vitamin D3 receptor (Homo sapiens) (UniProt P11473); assay: qHTS assay for small molecule antagonists of vitamin D receptor signaling (AID 588541); settings: HEK293T VDR-UAS-bla, beta-lactamase ratio, antagonist mode; activity change, negative = inhibition: at 76.7 µM (top of the series);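 note: receptor activated by calcitriol during compound treatment; % is set by controls: 0 for no effect and ±100 for the full control effect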
[18] = qHTS assay for small molecule agonists of the antioxidant response element (ARE) signaling pathway measured by Nrf2-dependant transcriptional activity (AID 720636; active = well fitted curve in the direction sought with a large enough effect in the repeat runs; inconclusive = weak or mixed curves; inactive = no such curve, though single readings can be large; an effect the other way counts as inactive or inconclusive; note: potency is the fitted concentration of half-maximal effect)
Summary of the method: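 In HepG2 cells engineered with an Nrf2-responsive luciferase gene, ARE induction was quantified as luminescence after 16 hr compound treatment at 37 C.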
Tags give direction and shape of the fitted curve or compound fluorescence and quenching.

Cc1cnc[nH]1
inactive: Potency [1] | Potency [2] | Potency [3] | Potency [7] | max response [8] 4.17% | activity change % (negative = inhibition) [9] 8% | Potency [10]
inconclusive: Potency [4] 35.5 µM [inhibitor, partial curve, poor fit] | activity change, negative = inhibition [5] -22.4% | activity, negative = inhibition [6] 9.7% | activation [11] -10.4%

Cc1ccc2ccccc2c1
inactive: Potency [4] | Potency [5] | Potency [12]
inconclusive: activation [11] 12.6%

CCOP(=S)(OCC)Oc1ncn(-c2ccccc2)n1
inconclusive: activity, negative = inhibition [6] 2.8% | Potency [13] 31.6 µM [side channel, falling, partial curve, poor fit]
inactive: Potency [4] | Potency [5] | Potency [12]

C=CC(=O)OCCCCCC(C)C
inactive: Potency [14] | max response [8] -5.23%
inconclusive: activity change, negative = inhibition [4] 15.1% | activity, negative = inhibition [6] 3.12% | activity change % (negative = inhibition) [9] -6.39%
active: Potency [7] 31.6 µM

CCCCOC(=O)c1ccccc1C(=O)O
inconclusive: activity change, negative = inhibition [4] -5.84%
inactive: Potency [6] | Potency [7]

CN(C)c1ccc(C(=O)c2ccc(N(C)C)cc2)cc1
active: Potency [13] 3.98 µM
inconclusive: Potency [14] 31.6 µM [inhibitor, partial curve, poor fit] | Potency [15] 7.08 µM [inhibitor, full curve] | Potency [16] 39.8 µM [side channel, rising, single point] | activity change, negative = inhibition [5] -36.8% | Potency [6] 44.7 µM [falling, partial curve] | activity change, negative = inhibition [17] -11.6% | Potency [7] 28.2 µM [side channel, rising, partial curve, poor fit] | max response [8] -33.9% | activity change % (negative = inhibition) [9] -10.1% | Potency [12] 77 µM [activator, single point] | Potency [18] 5.45 µM [activator, full curve, poor fit]
